In the supplement of paper PMC10126150:
Sequences with one replicate were seen in a single cluster, so their values are uncertain.

System: ATP
Assay: switch fluorescence ratio, 500 uM ATP over buffer (Cy3 cluster intensity, sum of 5 cycles each) (fold (ratio)); higher = stronger signal-on switching upon ATP binding; sequences stand for … in TCGTCGGCAGCGTCAGATGTGTATAAGAGACAGTTTTTTTTTTTTTTTTTTTTTTTTT…TC
Conditions: aptamer strand: ATP DNA aptamer (quencher-CACCTGGGGGAGTATTGCGGAGGAAGG + anchor), 100 nM annealed; ATP concentration: 500 uM; one replicate
Outline: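 The fluorescence ratio divides summed target-cycle Cy3 intensity by summed buffer-cycle Cy3 intensity for each cluster and is averaged per switch-domain sequence. Cy3-labelled switching-strand clusters on a modified Illumina MiSeq flow-cell were annealed to 100 nM quencher-labelled ATP aptamer, then imaged in selection buffer and again after 15 min with 500 uM ATP at 22 °C. Five such cycles were run, with NaOH stripping and re-annealing between them, and clusters outside 100-1000 RFU were excluded.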
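Note: ATP exposure 15 min at 22 °C before imaging.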

For CTCGGGGTCA, the switch fluorescence ratio was 0.978.
Work on TCTCCTTTCG yielded a switch fluorescence ratio of 1.09.
Work on CAATGCCAAG yielded a switch fluorescence ratio of 1.16.
Work on TTTAATCACG yielded a switch fluorescence ratio of 1.03.
GTAACAAGGC gave a switch fluorescence ratio of 1.27.
GCGGAGTATG gave a switch fluorescence ratio of 0.992.
In the case of GCCCGCCCGA, the switch fluorescence ratio is reported as 1.16.
For CGTTCTTTGA, the switch fluorescence ratio was 1.01.
Sequence GTTAGGGCTG has a switch fluorescence ratio of 1.
Sequence GGAGTGCAAG has a switch fluorescence ratio of 1.01.
In the case of GAGGTGCGAA, the switch fluorescence ratio is reported as 1.01.
AGTAGGAGCG gave a switch fluorescence ratio of 0.957.
For ACGGATCATG, the switch fluorescence ratio was 1.
With TCGCCTCTCA the switch fluorescence ratio was 0.962.
For GGGTTCTGAA, the switch fluorescence ratio was 0.974.
For GACAGCCTCT, the switch fluorescence ratio was 1.08.
TTCACCGGTA was tested, and the switch fluorescence ratio was 0.964.
Work on ATAATGAC yielded a switch fluorescence ratio of 1.04.
AAAATCGATG showed a switch fluorescence ratio of 1.02.
Sequence ATCAGGAA has a switch fluorescence ratio of 0.978.
In the case of GCTCCAGCGC, the switch fluorescence ratio is reported as 1.88.
In the case of TTCACGCAAC, the switch fluorescence ratio is reported as 2.08.
Work on CAAGTGTTTG yielded a switch fluorescence ratio of 0.979.
GCGCTGGAGC showed a switch fluorescence ratio of 0.985.
Sequence CAAAGCTTAC has a switch fluorescence ratio of 4.21.
With GATATCGTTG the switch fluorescence ratio was 1.02.
CAGAGTTGCC was tested, and the switch fluorescence ratio was 1.05.
Sequence ACATTTAAAT has a switch fluorescence ratio of 0.93.
With TAGGGGCTGG the switch fluorescence ratio was 1.09.
CCGTAAGACC showed a switch fluorescence ratio of 1.06.
TCGGTCTATG was tested, and the switch fluorescence ratio was 0.968.
In the case of ATGGGTAGAA, the switch fluorescence ratio is reported as 1.04.
Sequence GTTGACCAAA has a switch fluorescence ratio of 1.01.
TTTGGAGCGA was tested, and the switch fluorescence ratio was 1.02.
Work on TGTTAGGAGC yielded a switch fluorescence ratio of 1.04.
In the case of GTGCTCTCGG, the switch fluorescence ratio is reported as 1.02.
Sequence GTACCTGGGG has a switch fluorescence ratio of 0.986.
Sequence GGATAGCTAG has a switch fluorescence ratio of 0.991.
For TCGCGGCTAA, the switch fluorescence ratio was 1.06.
With TACCTGCGCG the switch fluorescence ratio was 1.04.
With TTTTACACGG the switch fluorescence ratio was 0.993.
In the case of GATTTAGTGT, the switch fluorescence ratio is reported as 0.984.
With AGTGATACTA the switch fluorescence ratio was 1.03.
ACATACCGC was tested, and the switch fluorescence ratio was 1.29.
Work on AGCGCTCACC yielded a switch fluorescence ratio of 1.17.
GATAGTACGT was tested, and the switch fluorescence ratio was 1.03.
Work on ACTTGGGAGA yielded a switch fluorescence ratio of 0.961.
For ACTATCTTCA, the switch fluorescence ratio was 1.02.
Sequence CAGAAACCGG has a switch fluorescence ratio of 1.01.
CTTCCGAGTA showed a switch fluorescence ratio of 2.8.
For AGGTACATGG, the switch fluorescence ratio was 1.07.
Sequence CACGACTTCT has a switch fluorescence ratio of 1.03.
CTATACTAGC gave a switch fluorescence ratio of 0.978.
For ACCATTTCGT, the switch fluorescence ratio was 0.949.
With AAAAGTATAT the switch fluorescence ratio was 1.02.
Work on ACGTAGGACT yielded a switch fluorescence ratio of 1.03.
CCAAAGGCGA was tested, and the switch fluorescence ratio was 1.32.
In the case of TAGTGCTGAA, the switch fluorescence ratio is reported as 0.986.
For TTATAGAACT, the switch fluorescence ratio was 1.01.
With CACGAGGCTG the switch fluorescence ratio was 1.02.
CGAGTGATAA showed a switch fluorescence ratio of 1.24.
GTACTGCGAG gave a switch fluorescence ratio of 0.984.
In the case of GTTTATGATG, the switch fluorescence ratio is reported as 1.
For AATGCACGGT, the switch fluorescence ratio was 1.03.
CCACATATAA was tested, and the switch fluorescence ratio was 1.25.
In the case of TTAAGAGTTG, the switch fluorescence ratio is reported as 0.962.
CCGGTACCCT gave a switch fluorescence ratio of 1.04.
Work on GTACTATTTC yielded a switch fluorescence ratio of 1.
Sequence CCAGGATGGA has a switch fluorescence ratio of 1.02.
TTACCCCCTT showed a switch fluorescence ratio of 1.04.
TGCGGAAACC showed a switch fluorescence ratio of 1.1.
CATTAGAGCC showed a switch fluorescence ratio of 0.952.
With GAAAATAAGT the switch fluorescence ratio was 1.02.
Work on ACGACAGTAG yielded a switch fluorescence ratio of 1.04.
CCTAGGTACA was tested, and the switch fluorescence ratio was 1.1.
Work on TTACGTTGGT yielded a switch fluorescence ratio of 0.971.
In the case of AGTTTAAAAA, the switch fluorescence ratio is reported as 0.942.
Sequence GCGTACGGTT has a switch fluorescence ratio of 0.996.
With ACGCTATTT the switch fluorescence ratio was 1.2.
CGATGGGT was tested, and the switch fluorescence ratio was 0.992.
In the case of ACGCCCGAGC, the switch fluorescence ratio is reported as 1.25.
GTTTCGGCCC gave a switch fluorescence ratio of 1.01.
In the case of TTTACTGGGT, the switch fluorescence ratio is reported as 1.01.
Work on CTAATGTGTT yielded a switch fluorescence ratio of 0.948.
GCAATGGAGG was tested, and the switch fluorescence ratio was 1.05.
For CGCAGGAATG, the switch fluorescence ratio was 1.13.
In the case of CGGTCCTGAT, the switch fluorescence ratio is reported as 0.981.
For CTGGAAAGAT, the switch fluorescence ratio was 0.987.
Sequence GGCTCTGTCG has a switch fluorescence ratio of 1.04.
Work on TATTCATTA yielded a switch fluorescence ratio of 1.05.
In the case of CCTTTTAAAG, the switch fluorescence ratio is reported as 0.951.
With AGAGGCCAAA the switch fluorescence ratio was 0.981.
With AATATGCTGT the switch fluorescence ratio was 0.929.
For CTGGGCGAG, the switch fluorescence ratio was 0.952.
CCATGCTGGT showed a switch fluorescence ratio of 0.979.
For GGACATATAT, the switch fluorescence ratio was 0.988.
Sequence TGCAAATTT has a switch fluorescence ratio of 0.982.
TTATTAGAT was tested, and the switch fluorescence ratio was 1.03.
GTGTTAGAAA showed a switch fluorescence ratio of 0.987.
Work on CGCGCAGTT yielded a switch fluorescence ratio of 1.05.
GCTTAATACA showed a switch fluorescence ratio of 1.01.
Sequence ACGGGGACGA has a switch fluorescence ratio of 1.02.
With TCATTCATAT the switch fluorescence ratio was 1.01.
Sequence GGACTATACG has a switch fluorescence ratio of 1.06.
CACACCAGGT was tested, and the switch fluorescence ratio was 3.97.
ATGACTCGTT showed a switch fluorescence ratio of 1.04.
GCAGCAGAGG was tested, and the switch fluorescence ratio was 1.29.
GGTCATAAAC gave a switch fluorescence ratio of 1.01.
CCTATTGGAT showed a switch fluorescence ratio of 1.01.
AAGGGTCACA showed a switch fluorescence ratio of 1.02.
Sequence GCTCTATAGA has a switch fluorescence ratio of 1.02.
Sequence TTAACCTTCC has a switch fluorescence ratio of 1.7.
For GACCCAAGAG, the switch fluorescence ratio was 1.01.
For CCGAGGGGAG, the switch fluorescence ratio was 1.06.
In the case of TGCACGAGTC, the switch fluorescence ratio is reported as 1.03.
For ACAAGTTCTA, the switch fluorescence ratio was 1.06.
With TTTATCTCTT the switch fluorescence ratio was 0.951.
TTGTCGTGGA showed a switch fluorescence ratio of 0.99.
TGGGGATGT was tested, and the switch fluorescence ratio was 1.02.
Work on TCTTTGTGCT yielded a switch fluorescence ratio of 1.01.
With CATGAGTTTT the switch fluorescence ratio was 0.94.
With AAAATCCTCT the switch fluorescence ratio was 1.04.
For TGTGTACCCC, the switch fluorescence ratio was 1.08.
Work on TTTATGTGTA yielded a switch fluorescence ratio of 1.02.
With ATTTCCCCGT the switch fluorescence ratio was 1.13.
For TAGGTTCGA, the switch fluorescence ratio was 0.989.
Work on TAGGAGGTG yielded a switch fluorescence ratio of 1.09.
For TTTGACCCCG, the switch fluorescence ratio was 0.987.
GCTTGTCGCG gave a switch fluorescence ratio of 0.985.
Work on CTTAGGGCAT yielded a switch fluorescence ratio of 1.
Sequence GACGCCGGGC has a switch fluorescence ratio of 1.13.
Sequence ACTCTGACTA has a switch fluorescence ratio of 1.1.
Sequence CATTACCTA has a switch fluorescence ratio of 1.06.
In the case of AAGAACTCCT, the switch fluorescence ratio is reported as 1.02.
TAAGTGGTCT gave a switch fluorescence ratio of 1.02.
GGCAATGTAC showed a switch fluorescence ratio of 3.37.
Work on ATACGAGGGT yielded a switch fluorescence ratio of 1.03.
With TGCAGACCGA the switch fluorescence ratio was 1.07.
In the case of TATAATAAAA, the switch fluorescence ratio is reported as 1.02.
For AAGTAGGAGG, the switch fluorescence ratio was 1.02.
In the case of CCCTATATC, the switch fluorescence ratio is reported as 1.11.
TGCTTTAGAT gave a switch fluorescence ratio of 1.03.
GAGCTAACTT was tested, and the switch fluorescence ratio was 1.03.
In the case of TTGAATCATC, the switch fluorescence ratio is reported as 1.02.
For GGGTTTCG, the switch fluorescence ratio was 1.
Sequence GACGCGTACC has a switch fluorescence ratio of 3.19.
For CTAGATGGT, the switch fluorescence ratio was 0.924.
Sequence TCGTGAGTTG has a switch fluorescence ratio of 0.975.
ATGACCGTAC gave a switch fluorescence ratio of 1.42.
With GACCCTGGTG the switch fluorescence ratio was 1.6.
GCAAGCAGGG was tested, and the switch fluorescence ratio was 1.03.
With TCAAAAATAA the switch fluorescence ratio was 1.01.
AAGAAGTTAA showed a switch fluorescence ratio of 1.03.
GATGTACGGC gave a switch fluorescence ratio of 1.12.
TCCGGAAAAA was tested, and the switch fluorescence ratio was 1.16.
With TAGATAGTAG the switch fluorescence ratio was 0.972.
AATCCATGAG was tested, and the switch fluorescence ratio was 0.983.
